Article PMC5700166
The list shows a part of the results, in another mix than the full data. The list includes weakly bound sequences.

Target: T1, GST-Nv-NF-kB (Cys allele) (UniProt E5G601)
T1 sequence: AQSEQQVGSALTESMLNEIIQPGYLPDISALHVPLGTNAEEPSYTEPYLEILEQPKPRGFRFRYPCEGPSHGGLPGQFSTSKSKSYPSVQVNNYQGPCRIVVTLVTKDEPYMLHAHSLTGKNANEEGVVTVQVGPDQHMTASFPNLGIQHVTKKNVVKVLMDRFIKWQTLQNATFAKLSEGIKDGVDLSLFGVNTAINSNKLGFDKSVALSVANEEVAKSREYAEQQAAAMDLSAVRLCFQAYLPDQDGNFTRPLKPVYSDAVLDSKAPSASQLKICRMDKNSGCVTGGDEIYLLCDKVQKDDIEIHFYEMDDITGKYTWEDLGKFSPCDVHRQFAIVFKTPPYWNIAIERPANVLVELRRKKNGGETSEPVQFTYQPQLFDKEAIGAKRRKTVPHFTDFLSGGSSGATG
Experiment: protein-binding microarray (PBM)
Conditions: PBM: ~300 nM protein, 6 mM HEPES pH 7.8, 80 mM KCl, 0.5 mM EDTA, 0.5 mM EGTA, 6% glycerol, 35 ng/ul poly-dIdC, 1% milk, 1 h, room temperature; high values mean tight binding; double strand, one strand shown

| Sequence | binding signal [z-score] |
| --- | --- |
| CCGATTAACATCAGGGGATCCCATGATGTTAATCGGGTCTTGATTCGCTTGACGCTGCTG | 5.1 |
| CCGATTAACATCAGGAGGTTCCCTGATGTTAATCGGGTCTTGATTCGCTTGACGCTGCTG | 0.731 |
| CCGATTAACATCAGGGGGAATACTGATGTTAATCGGGTCTTGATTCGCTTGACGCTGCTG | 8.32 |
| CCGATTAACATCAGCACGGGAAATGATGTTAATCGGGTCTTGATTCGCTTGACGCTGCTG | 2.98 |
| CCGATTAACATCACTTTTTTCCCTGATGTTAATCGGGTCTTGATTCGCTTGACGCTGCTG | 4.9 |
| CCGATTAACATCAGATTTCTCCCTGATGTTAATCGGGTCTTGATTCGCTTGACGCTGCTG | 3.11 |
| CCGATTAACATCACGGAAATACCTGATGTTAATCGGGTCTTGATTCGCTTGACGCTGCTG | 0.416 |
| CCGATTAACATCAGGGGAAGTACTGATGTTAATCGGGTCTTGATTCGCTTGACGCTGCTG | 8.22 |
| CCGATTAACATCAGGAACCCCCATGATGTTAATCGGGTCTTGATTCGCTTGACGCTGCTG | 5 |
| CCGATTAACATCAAAACCCCCCTTGATGTTAATCGGGTCTTGATTCGCTTGACGCTGCTG | 7.32 |
| CCGATTAACATCAGGGCCCCCCCTGATGTTAATCGGGTCTTGATTCGCTTGACGCTGCTG | 4.21 |
| CCGATTAACATCAGGGGTCAGTATGATGTTAATCGGGTCTTGATTCGCTTGACGCTGCTG | 0.481 |
| CCGATTAACATCAAGGGAACCCCTGATGTTAATCGGGTCTTGATTCGCTTGACGCTGCTG | 3.13 |
| CCGATTAACATCAGGGAAGTCCATGATGTTAATCGGGTCTTGATTCGCTTGACGCTGCTG | 2.51 |
| CCGATTAACATCACAAACTTCCCTGATGTTAATCGGGTCTTGATTCGCTTGACGCTGCTG | 4.26 |
| CCGATTAACATCAGAAAAGTACCTGATGTTAATCGGGTCTTGATTCGCTTGACGCTGCTG | 6.4 |
| CCGATTAACATCACGGAAACACCTGATGTTAATCGGGTCTTGATTCGCTTGACGCTGCTG | 0.259 |
| CCGATTAACATCAAAAGATCCCCTGATGTTAATCGGGTCTTGATTCGCTTGACGCTGCTG | 8.42 |
| CCGATTAACATCACGTTTTCCCCTGATGTTAATCGGGTCTTGATTCGCTTGACGCTGCTG | 7.87 |
| CCGATTAACATCACAACTTTCCCTGATGTTAATCGGGTCTTGATTCGCTTGACGCTGCTG | 5.95 |

| Sequence | binding signal [z-score] |
| --- | --- |
| CCGATTAACATCAGAAATCTCCCTGATGTTAATCGGGTCTTGATTCGCTTGACGCTGCTG | 5.21 |
| CCGATTAACATCAGGGGATTATATGATGTTAATCGGGTCTTGATTCGCTTGACGCTGCTG | 9.17 |
| CCGATTAACATCAGGGGGAGAGATGATGTTAATCGGGTCTTGATTCGCTTGACGCTGCTG | 3.66 |
| CCGATTAACATCAGATATTTCCCTGATGTTAATCGGGTCTTGATTCGCTTGACGCTGCTG | 5.95 |
| CCGATTAACATCAGGACTTGCCCTGATGTTAATCGGGTCTTGATTCGCTTGACGCTGCTG | 1.11 |
| CCGATTAACATCAGGCGAACCCCTGATGTTAATCGGGTCTTGATTCGCTTGACGCTGCTG | 1.1 |
| CCGATTAACATCAATGGGTTTTCTGATGTTAATCGGGTCTTGATTCGCTTGACGCTGCTG | 1.21 |
| CCGATTAACATCAAGACTCCCCCTGATGTTAATCGGGTCTTGATTCGCTTGACGCTGCTG | 5.25 |
| CCGATTAACATCAGGGACCCCCCTGATGTTAATCGGGTCTTGATTCGCTTGACGCTGCTG | 5.59 |
| CCGATTAACATCAGGGGGTTTCATGATGTTAATCGGGTCTTGATTCGCTTGACGCTGCTG | 7.15 |
| CCGATTAACATCAAATTTTCCCATGATGTTAATCGGGTCTTGATTCGCTTGACGCTGCTG | 5.18 |
| CCGATTAACATCAGGTCGGGAAATGATGTTAATCGGGTCTTGATTCGCTTGACGCTGCTG | 2.6 |
| CCGATTAACATCAGGAACGCCCCTGATGTTAATCGGGTCTTGATTCGCTTGACGCTGCTG | 3.22 |
| CCGATTAACATCAGGAGAGTACCTGATGTTAATCGGGTCTTGATTCGCTTGACGCTGCTG | 2.32 |
| CCGATTAACATCAGGAGAATCCCTGATGTTAATCGGGTCTTGATTCGCTTGACGCTGCTG | 3.24 |
| CCGATTAACATCAAAACCCCCCATGATGTTAATCGGGTCTTGATTCGCTTGACGCTGCTG | 6.62 |
| CCGATTAACATCAGGCAGTTCCCTGATGTTAATCGGGTCTTGATTCGCTTGACGCTGCTG | 1.3 |
| CCGATTAACATCAGAAATTTACCTGATGTTAATCGGGTCTTGATTCGCTTGACGCTGCTG | 2.05 |
| CCGATTAACATCAGGACACCCCATGATGTTAATCGGGTCTTGATTCGCTTGACGCTGCTG | 0.579 |
| CCGATTAACATCAGATATCCCCCTGATGTTAATCGGGTCTTGATTCGCTTGACGCTGCTG | 6.62 |

Target: T2, GST-Co-NF-kB (UniProt F1ARL5)
T2 sequence: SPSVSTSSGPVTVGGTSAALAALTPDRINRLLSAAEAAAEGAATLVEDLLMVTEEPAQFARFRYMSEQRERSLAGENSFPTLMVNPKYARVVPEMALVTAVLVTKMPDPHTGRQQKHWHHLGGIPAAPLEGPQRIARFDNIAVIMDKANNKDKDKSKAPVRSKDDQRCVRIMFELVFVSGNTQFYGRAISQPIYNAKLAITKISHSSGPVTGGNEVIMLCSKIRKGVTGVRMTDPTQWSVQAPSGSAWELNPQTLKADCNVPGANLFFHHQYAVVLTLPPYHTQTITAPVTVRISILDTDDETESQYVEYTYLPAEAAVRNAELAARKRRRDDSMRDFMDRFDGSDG
Experiment: protein-binding microarray (PBM)
Conditions: PBM: ~300 nM protein, 6 mM HEPES pH 7.8, 80 mM KCl, 0.5 mM EDTA, 0.5 mM EGTA, 6% glycerol, 35 ng/ul poly-dIdC, 1% milk, 1 h, room temperature; Ap Aiptasia and Nv Nematostella (sea anemones) / Co Capsaspora / Aq Amphimedon (sponge) / Dm Drosophila / Hu human; RHD is the Rel homology domain; high values mean tight binding; most listed sequences are background and not binding sites; double strand, one strand shown

| Sequence | binding signal [z-score] |
| --- | --- |
| CCGATTAACATCAGGGGATCCCATGATGTTAATCGGGTCTTGATTCGCTTGACGCTGCTG | 2.81 |
| CCGATTAACATCAGGAGGTTCCCTGATGTTAATCGGGTCTTGATTCGCTTGACGCTGCTG | 0.78 |
| CCGATTAACATCAGGGGGAATACTGATGTTAATCGGGTCTTGATTCGCTTGACGCTGCTG | 9.18 |
| CCGATTAACATCACTTTTTTCCCTGATGTTAATCGGGTCTTGATTCGCTTGACGCTGCTG | 6.08 |
| CCGATTAACATCAGATTTCTCCCTGATGTTAATCGGGTCTTGATTCGCTTGACGCTGCTG | 2.92 |
| CCGATTAACATCACGGAAATACCTGATGTTAATCGGGTCTTGATTCGCTTGACGCTGCTG | 0.0538 |
| CCGATTAACATCAGGAACCCCCATGATGTTAATCGGGTCTTGATTCGCTTGACGCTGCTG | 2.67 |
| CCGATTAACATCAGGGCCCCCCCTGATGTTAATCGGGTCTTGATTCGCTTGACGCTGCTG | 2.89 |
| CCGATTAACATCAGGGGTCAGTATGATGTTAATCGGGTCTTGATTCGCTTGACGCTGCTG | 0.945 |
| CCGATTAACATCAAGGGAACCCCTGATGTTAATCGGGTCTTGATTCGCTTGACGCTGCTG | 0.931 |
| CCGATTAACATCAGGGAAGTCCATGATGTTAATCGGGTCTTGATTCGCTTGACGCTGCTG | 1.08 |
| CCGATTAACATCACAAACTTCCCTGATGTTAATCGGGTCTTGATTCGCTTGACGCTGCTG | 2.51 |
| CCGATTAACATCAGAAAAGTACCTGATGTTAATCGGGTCTTGATTCGCTTGACGCTGCTG | 0.588 |
| CCGATTAACATCACGGAAACACCTGATGTTAATCGGGTCTTGATTCGCTTGACGCTGCTG | 0.506 |
| CCGATTAACATCACAACTTTCCCTGATGTTAATCGGGTCTTGATTCGCTTGACGCTGCTG | 4.34 |
| CCGATTAACATCAGAAATCTCCCTGATGTTAATCGGGTCTTGATTCGCTTGACGCTGCTG | 2.43 |

| Sequence | binding signal [z-score] |
| --- | --- |
| CCGATTAACATCAGGGGATTATATGATGTTAATCGGGTCTTGATTCGCTTGACGCTGCTG | 4.18 |
| CCGATTAACATCAGGGGGAGAGATGATGTTAATCGGGTCTTGATTCGCTTGACGCTGCTG | 5.69 |
| CCGATTAACATCAGATATTTCCCTGATGTTAATCGGGTCTTGATTCGCTTGACGCTGCTG | 5.03 |
| CCGATTAACATCAGGACTTGCCCTGATGTTAATCGGGTCTTGATTCGCTTGACGCTGCTG | -0.733 |
| CCGATTAACATCAGGCGAACCCCTGATGTTAATCGGGTCTTGATTCGCTTGACGCTGCTG | -0.504 |
| CCGATTAACATCAATGGGTTTTCTGATGTTAATCGGGTCTTGATTCGCTTGACGCTGCTG | 0.972 |
| CCGATTAACATCAAGACTCCCCCTGATGTTAATCGGGTCTTGATTCGCTTGACGCTGCTG | 5.87 |
| CCGATTAACATCAGGGGGTTTCATGATGTTAATCGGGTCTTGATTCGCTTGACGCTGCTG | 2.56 |
| CCGATTAACATCAGGTCGGGAAATGATGTTAATCGGGTCTTGATTCGCTTGACGCTGCTG | 3.1 |
| CCGATTAACATCAGGAACGCCCCTGATGTTAATCGGGTCTTGATTCGCTTGACGCTGCTG | 0.44 |
| CCGATTAACATCAGGAGAGTACCTGATGTTAATCGGGTCTTGATTCGCTTGACGCTGCTG | -0.466 |
| CCGATTAACATCAGGAGAATCCCTGATGTTAATCGGGTCTTGATTCGCTTGACGCTGCTG | 0.187 |
| CCGATTAACATCAGGCAGTTCCCTGATGTTAATCGGGTCTTGATTCGCTTGACGCTGCTG | 0.766 |
| CCGATTAACATCAGAAATTTACCTGATGTTAATCGGGTCTTGATTCGCTTGACGCTGCTG | 0.327 |
| CCGATTAACATCAGGACACCCCATGATGTTAATCGGGTCTTGATTCGCTTGACGCTGCTG | 1.49 |
| CCGATTAACATCAGATATCCCCCTGATGTTAATCGGGTCTTGATTCGCTTGACGCTGCTG | 6.39 |
